We go through nine variants from the supplement of paper PMC12217912.

B1: TEV protease; numbered along this chain (parent)
chain: MGESLFKGPRDYNPISSSICHLTNESDGHTTSLYGIGFGPFIITNKHLFRRNNGTLVVQSLHGVFKVKDTTTLQQHLVDGRDMIIIRMPKDFPPFPQKLKFREPQREERICLVTTNFQTKSMSSMVSDTSCTFPSGDGIFWKHWIQTKDGQCGSPLVSTRDGFIVGIHSASNFTNTNNYFTSVPKNFMELLTNQEAQQWVSGWRLNADSVLWGGHKVFMVKPEEPFQPVKEATQL

In this test the parent is B1. Nature of the test: raw area under fraction-flipped curve 0-4 h after induction (AUC4h, not background-subtracted), DNA-recorder readout of cleavage of the substrate (dimensionless); higher = more cleavage of the substrate by the protease variant. Particulars: temperature: 34 °C; time window: 0-4 h after rhamnose induction. Here is the method: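 In vivo DNA recorder in E. coli TOP10(DE3) ΔrhaA at 34 °C. Each TEVp single-site mutant (parent TEVp 0) is paired with a single-site variant of the 7-mer TEVs (canonical ENLYFQ|S). The substrate sits between flexible linkers in a Bxb1-sfGFP-TEVs-SsrA fusion, so cleavage stabilises Bxb1 and speeds flipping of a recombination array, read by NGS. The value is the raw area under the fraction-flipped curve over 0-4 h after rhamnose induction (AUC4h), with ≥20 reads per time point. It is not background-subtracted; inactive controls average about 0.047.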

The other results are listed elsewhere or left out. Sequences were assembled here from the parent chain. Inactive controls read about 0.05.
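Note: Bxb1 expression induced with 0.2% (w/v) L-rhamnose at OD600 near 0.5, cultures sampled hourly, flipped fraction per protease–substrate barcode pair counted by paired-end Illumina sequencing.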

As to MGESLFKGPRDYNPISSSICHLTNESDGHTTSLYGIGFGPFIYTNKHLFRRNNGTLVVQSLHGVFKVKDTTTLQQHLVDGRDMIIIRMPKDFPPFPQKLKFREPQREERICLVTTNFQTKSMSSMVSDTSCTFPSGDGIFWKHWIQTKDGQCGSPLVSTRDGFIVGIHSASNFTNTNNYFTSVPKNFMELLTNQEAQQWVSGWRLNADSVLWGGHKVFMVKPEEPFQPVKEATQL [I43Y], the “area with substrate EALYFQS” value turned out to be 0.0562, the “area with substrate ECLYFQS” value is 0.0359, the “area with substrate EELYFQS” value stood at 0.0564 and the “area with substrate EILYFQS” value is 0.0494. Further, the “area with substrate EKLYFQS” value was 0.06, the “area with substrate ELLYFQS” value was determined as 0.0413, the “area with substrate EMLYFQS” value came to 0.0529 and the “area with substrate EQLYFQS” value came to 0.0496. Besides, the “area with substrate ERLYFQS” value came out at 0.0437, the “area with substrate ESLYFQS” value worked out at 0.0552, the “area with substrate ETLYFQS” value was 0.054 and the “area with substrate EWLYFQS” value turned out to be 0.056. In addition, the “area with substrate EYLYFQS” value stood at 0.038.
In the case of MGESLFKGPRDYNPISSSICHLTNESDGHTTSLYGIGFGPFIITNKHLFRRNNGDLVVQSLHGVFKVKDTTTLQQHLVDGRDMIIIRMPKDFPPFPQKLKFREPQREERICLVTTNFQTKSMSSMVSDTSCTFPSGDGIFWKHWIQTKDGQCGSPLVSTRDGFIVGIHSASNFTNTNNYFTSVPKNFMELLTNQEAQQWVSGWRLNADSVLWGGHKVFMVKPEEPFQPVKEATQL [T55D], the “area with substrate EALYFQS” value was determined as 0.105, the “area with substrate EELYFQS” value turned out to be 0.106, the “area with substrate EILYFQS” value was determined as 0.0722 and the “area with substrate EMLYFQS” value is 0.109. Further, the “area with substrate EPLYFQS” value is 0.0943, the “area with substrate EQLYFQS” value is 0.0996, the “area with substrate ESLYFQS” value amounted to 0.101 and the “area with substrate EVLYFQS” value came to 0.0703. Moreover, the “area with substrate EWLYFQS” value was determined as 0.0721.
Consider MGESLFKGPRDYNPISSSICHLTNESDGHTTSLYGIGFGPFIITNKHLFRRNNGLLVVQSLHGVFKVKDTTTLQQHLVDGRDMIIIRMPKDFPPFPQKLKFREPQREERICLVTTNFQTKSMSSMVSDTSCTFPSGDGIFWKHWIQTKDGQCGSPLVSTRDGFIVGIHSASNFTNTNNYFTSVPKNFMELLTNQEAQQWVSGWRLNADSVLWGGHKVFMVKPEEPFQPVKEATQL [T55L], for which the “area with substrate EALYFQS” value was 0.0853, the “area with substrate EDLYFQS” value is 0.117, the “area with substrate EFLYFQS” value was found to be 0.0931 and the “area with substrate EILYFQS” value was found to be 0.0825. Also, the “area with substrate ELLYFQS” value came out at 0.0935, the “area with substrate EMLYFQS” value turned out to be 0.0956, the “area with substrate EQLYFQS” value amounted to 0.0643 and the “area with substrate ERLYFQS” value is 0.104. Moreover, the “area with substrate ESLYFQS” value came to 0.0966, the “area with substrate EVLYFQS” value came to 0.0774 and the “area with substrate EYLYFQS” value amounted to 0.09.
With MGESLFKGPRDYNPISSSICHLTNESDGHTTSLYGIGFGPFIITNKHLFIRNNGTLVVQSLHGVFKVKDTTTLQQHLVDGRDMIIIRMPKDFPPFPQKLKFREPQREERICLVTTNFQTKSMSSMVSDTSCTFPSGDGIFWKHWIQTKDGQCGSPLVSTRDGFIVGIHSASNFTNTNNYFTSVPKNFMELLTNQEAQQWVSGWRLNADSVLWGGHKVFMVKPEEPFQPVKEATQL [R50I], the “area with substrate EALYFQS” value was 0.151, the “area with substrate ECLYFQS” value stood at 0.139, the “area with substrate EGLYFQS” value worked out at 0.099 and the “area with substrate EHLYFQS” value worked out at 0.135. Besides, the “area with substrate EILYFQS” value was 0.107, the “area with substrate EKLYFQS” value came out at 0.144, the “area with substrate ELLYFQS” value amounted to 0.123 and the “area with substrate EQLYFQS” value was 0.133. Further, the “area with substrate ESLYFQS” value stood at 0.139, the “area with substrate EVLYFQS” value is 0.102 and the “area with substrate EYLYFQS” value is 0.109.
On to MGESLFKGPRDYNPISSSICHLTNESDGHTTSLYGIGFGPFIITNKQLFRRNNGTLVVQSLHGVFKVKDTTTLQQHLVDGRDMIIIRMPKDFPPFPQKLKFREPQREERICLVTTNFQTKSMSSMVSDTSCTFPSGDGIFWKHWIQTKDGQCGSPLVSTRDGFIVGIHSASNFTNTNNYFTSVPKNFMELLTNQEAQQWVSGWRLNADSVLWGGHKVFMVKPEEPFQPVKEATQL [H47Q], for which the “area with substrate EALYFQS” value amounted to 0.0552, the “area with substrate EDLYFQS” value amounted to 0.0535, the “area with substrate EELYFQS” value worked out at 0.0521 and the “area with substrate EGLYFQS” value worked out at 0.0816. The “area with substrate EILYFQS” value amounted to 0.0466, the “area with substrate EKLYFQS” value was 0.0613, the “area with substrate EMLYFQS” value stood at 0.0554 and the “area with substrate EPLYFQS” value came to 0.0656. Besides, the “area with substrate EQLYFQS” value was 0.0672, the “area with substrate ESLYFQS” value worked out at 0.0609, the “area with substrate ETLYFQS” value is 0.0609 and the “area with substrate EVLYFQS” value amounted to 0.0514. The “area with substrate EWLYFQS” value was 0.0651.
On to MGESLFKGPRDYNPISSSICHLTNESDGHTTSLYGIGFGPFIITNKHLFRYNNGTLVVQSLHGVFKVKDTTTLQQHLVDGRDMIIIRMPKDFPPFPQKLKFREPQREERICLVTTNFQTKSMSSMVSDTSCTFPSGDGIFWKHWIQTKDGQCGSPLVSTRDGFIVGIHSASNFTNTNNYFTSVPKNFMELLTNQEAQQWVSGWRLNADSVLWGGHKVFMVKPEEPFQPVKEATQL [R51Y], for which the “area with substrate EALYFQS” value came to 0.139, the “area with substrate EDLYFQS” value turned out to be 0.15, the “area with substrate EELYFQS” value is 0.124 and the “area with substrate EFLYFQS” value is 0.133. Moreover, the “area with substrate EGLYFQS” value was determined as 0.064, the “area with substrate EILYFQS” value was 0.117, the “area with substrate EKLYFQS” value is 0.099 and the “area with substrate EPLYFQS” value turned out to be 0.124. Besides, the “area with substrate EQLYFQS” value was determined as 0.143, the “area with substrate ESLYFQS” value turned out to be 0.126, the “area with substrate ETLYFQS” value is 0.142 and the “area with substrate EVLYFQS” value was found to be 0.107.
As to MGESLFKGPRDYNPISSSICHLTNESDGHTTSLYGIGFGPFIITNKHLFRWNNGTLVVQSLHGVFKVKDTTTLQQHLVDGRDMIIIRMPKDFPPFPQKLKFREPQREERICLVTTNFQTKSMSSMVSDTSCTFPSGDGIFWKHWIQTKDGQCGSPLVSTRDGFIVGIHSASNFTNTNNYFTSVPKNFMELLTNQEAQQWVSGWRLNADSVLWGGHKVFMVKPEEPFQPVKEATQL [R51W], the “area with substrate EALYFQS” value is 0.098, the “area with substrate EFLYFQS” value was found to be 0.0663, the “area with substrate EGLYFQS” value was determined as 0.0885 and the “area with substrate EHLYFQS” value was found to be 0.132. Further, the “area with substrate EILYFQS” value was found to be 0.0928, the “area with substrate ELLYFQS” value turned out to be 0.124, the “area with substrate EQLYFQS” value came out at 0.168 and the “area with substrate ERLYFQS” value is 0.107. The “area with substrate ESLYFQS” value is 0.107 and the “area with substrate EWLYFQS” value came out at 0.126.
Regarding MGESLFKGPRDYNPISSSICHLTNESDGHTTSLYGIGFGPFIITNKHLFRPNNGTLVVQSLHGVFKVKDTTTLQQHLVDGRDMIIIRMPKDFPPFPQKLKFREPQREERICLVTTNFQTKSMSSMVSDTSCTFPSGDGIFWKHWIQTKDGQCGSPLVSTRDGFIVGIHSASNFTNTNNYFTSVPKNFMELLTNQEAQQWVSGWRLNADSVLWGGHKVFMVKPEEPFQPVKEATQL [R51P], the “area with substrate EALYFQS” value was determined as 0.071, the “area with substrate EDLYFQS” value amounted to 0.0936, the “area with substrate EELYFQS” value worked out at 0.0841 and the “area with substrate EFLYFQS” value was found to be 0.0844. For the same variant, the “area with substrate EHLYFQS” value came to 0.0514, the “area with substrate EKLYFQS” value came out at 0.0655, the “area with substrate ELLYFQS” value is 0.0664 and the “area with substrate EPLYFQS” value was determined as 0.0943. The “area with substrate EQLYFQS” value turned out to be 0.0699, the “area with substrate ERLYFQS” value was determined as 0.0812, the “area with substrate ESLYFQS” value is 0.0847 and the “area with substrate ETLYFQS” value stood at 0.0779. Also, the “area with substrate EVLYFQS” value is 0.0592.
In the case of MGESLFKGPRDYNPISSSICHLTNESDGHTTSLYGIGFGPFIITNKHLFRRNNGTLVVQSLLGVFKVKDTTTLQQHLVDGRDMIIIRMPKDFPPFPQKLKFREPQREERICLVTTNFQTKSMSSMVSDTSCTFPSGDGIFWKHWIQTKDGQCGSPLVSTRDGFIVGIHSASNFTNTNNYFTSVPKNFMELLTNQEAQQWVSGWRLNADSVLWGGHKVFMVKPEEPFQPVKEATQL [H62L], the “area with substrate EALYFQS” value was determined as 0.156, the “area with substrate EDLYFQS” value was determined as 0.147, the “area with substrate EELYFQS” value was determined as 0.0879 and the “area with substrate EFLYFQS” value came to 0.0856. The “area with substrate EGLYFQS” value worked out at 0.114, the “area with substrate ELLYFQS” value stood at 0.0933, the “area with substrate EMLYFQS” value was 0.0934 and the “area with substrate EPLYFQS” value came out at 0.115. The “area with substrate EQLYFQS” value amounted to 0.11, the “area with substrate ESLYFQS” value was found to be 0.0928, the “area with substrate EVLYFQS” value worked out at 0.109 and the “area with substrate EWLYFQS” value came to 0.108.
